The target of assay [1] is T1, recombinant human GDF-11 (growth differentiation factor 11) (human) (UniProt O95390).
T1 sequence (looked up): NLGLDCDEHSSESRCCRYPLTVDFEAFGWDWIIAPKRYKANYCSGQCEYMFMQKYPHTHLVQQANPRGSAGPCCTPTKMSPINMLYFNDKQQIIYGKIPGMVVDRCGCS
Briefly: cell-based or functional assay.

The target of assay [2] is T2, ActIIB receptor on the cell surface of A204-CAGA12-Luc cells (human, UniProt Q13705 19-512).
T2 construct: whole, on cells; the whole receptor stood on the cells; also called ActRIIB; activin receptor type IIB
T2 sequence (looked up): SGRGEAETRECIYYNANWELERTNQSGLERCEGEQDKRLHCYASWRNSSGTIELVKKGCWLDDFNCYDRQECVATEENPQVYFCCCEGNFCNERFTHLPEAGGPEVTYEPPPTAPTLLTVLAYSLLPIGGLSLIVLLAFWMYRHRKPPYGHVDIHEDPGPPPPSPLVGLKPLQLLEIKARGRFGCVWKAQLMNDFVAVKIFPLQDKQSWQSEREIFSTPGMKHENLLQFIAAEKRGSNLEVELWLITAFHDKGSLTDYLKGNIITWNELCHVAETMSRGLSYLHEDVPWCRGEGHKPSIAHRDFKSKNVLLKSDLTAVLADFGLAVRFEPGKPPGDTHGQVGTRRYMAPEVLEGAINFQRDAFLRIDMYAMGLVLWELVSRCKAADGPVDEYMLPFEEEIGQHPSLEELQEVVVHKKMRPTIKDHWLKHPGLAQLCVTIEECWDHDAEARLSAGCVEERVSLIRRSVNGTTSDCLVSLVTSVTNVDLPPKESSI
The experiment in a line: flow cytometry: staining for Product 1 on A204-CAGA12-Luc cells in the absence of GDF-11; the Product 1 concentration is not given. In general terms: A flow cytometer gives signals particle by particle.

The target in assay [3] is T3, GDF-11 bound to the cell surface of A204-CAGA12-Luc cells (GDF-11 in complex with ActIIB receptor) (human, UniProt O95390 299-407; Q13705 19-512).
T3 construct: Ligand already held by its receptor on cells; not free GDF-11; Other receptor chains of the complex (ActIB) are named only in passing; also called A204-CAGA12-Luc cell line pre-incubated with high, medium, or low concentrations of GDF-11
T3 sequence (looked up) 1: T1 sequence (looked up)
T3 sequence (looked up) 2: T2 sequence (looked up)
The experiment in a line: flow cytometry: staining for Product 1 on A204-CAGA12-Luc cells pre-incubated with a high concentration of GDF-11; concentrations are not given.

For assay [4], the target named is T4, recombinant human GDF-11 (growth differentiation factor 11) (human, UniProt O95390 299-407).
T4 sequence (looked up): T1 sequence (looked up)
The experiment in a line: cell-based or functional assay.

These results are taken from patent publication US12186370 (CELGENE, dated 2025).

B1: Product 1 under high pH stress (4 to 22 days) (Fc fusion)
chain: ETRECIYYNANWELERTNQSGLERCEGEQDKRLHCYASWRNSSGTIELVKKGCWDDDFNCYDRQECVATEENPQVYFCCCEGNFCNERFTHLPEAGGPEVTYEPPPTG[human IgG1 Fc and a few adjoining residues not spelt out]
modifications: Asn (including Asn272/277) deamidated in 32.4 to 75.4%; 3.6 to 10.4% LMWS (Table 11)
In the case of B1, in assay [1], the % Potency (reporter gene assay), high pH stress T4 is 85%; the % Potency (reporter gene assay), high pH stress T8 is 100%; the % Potency (reporter gene assay), high pH stress T12 is 79%; the % Potency (reporter gene assay), high pH stress T16 was determined as 79%. Moreover, the % Potency (reporter gene assay), high pH stress T22 in assay [1] was 68%.

B2: Product 1 under heat stress (40° C., 7 to 28 days) (Fc fusion)
chain: ETRECIYYNANWELERTNQSGLERCEGEQDKRLHCYASWRNSSGTIELVKKGCWDDDFNCYDRQECVATEENPQVYFCCCEGNFCNERFTHLPEAGGPEVTYEPPPTG[human IgG1 Fc and a few adjoining residues not spelt out]
modifications: Asp (including Asp55/56/57) isomerized in 4.7 to 18.7% (Table 10)
Take B2: in assay [1], the % Potency (reporter gene assay), 40° C., 7 days was 78%; the % Potency (reporter gene assay), 40° C., 14 days stood at 66%; the % Potency (reporter gene assay), 40° C., 21 days amounted to 63%; the % Potency (reporter gene assay), 40° C., 28 days was 46%.

B3: Product 1 (ActRIIB-Fc fusion protein; modified extracellular domain of human ActRIIB with L79D linked to the human IgG1 Fc domain) (Fc fusion)
chain: ETRECIYYNANWELERTNQSGLERCEGEQDKRLHCYASWRNSSGTIELVKKGCWDDDFNCYDRQECVATEENPQVYFCCCEGNFCNERFTHLPEAGGPEVTYEPPPTG[human IgG1 Fc and a few adjoining residues not spelt out]
modifications: N- and O-glycosylated; C-terminal Lys clipped in about 95% of chains; low levels of pyroGlu, Pro amidation, Asn deamidation, Asp isomerization, Met oxidation, Lys glycation (Tables 2 and 3)
notes: 95% of chains lack it); also called ActRIIB ligand trap; ActIIB (L79D)-Fc
B3: the binding result in assay [2] is “no binding”. Also, in assay [3], the binding result is on record as “no binding”. Moreover, in assay [4], the “Potency (Relative to A10) (%), batch A1” value stood at 93%; the “Potency (Relative to A10) (%), batch A2” value was determined as 88%; the “Potency (Relative to A10) (%), batch A3” value is 107%; the “Potency (Relative to A10) (%), batch A4 (PRSA4)” value stood at 96%. For the same molecule, in assay [4], the “Potency (Relative to A10) (%), batch A5” value was 95%.
